Measured values taken from article PMC12136788.
Some of the results follow.

T1: UNK ZnF1-6 (called full-length) (human, UniProt Q9C0B0 30-357)
T1 sequence: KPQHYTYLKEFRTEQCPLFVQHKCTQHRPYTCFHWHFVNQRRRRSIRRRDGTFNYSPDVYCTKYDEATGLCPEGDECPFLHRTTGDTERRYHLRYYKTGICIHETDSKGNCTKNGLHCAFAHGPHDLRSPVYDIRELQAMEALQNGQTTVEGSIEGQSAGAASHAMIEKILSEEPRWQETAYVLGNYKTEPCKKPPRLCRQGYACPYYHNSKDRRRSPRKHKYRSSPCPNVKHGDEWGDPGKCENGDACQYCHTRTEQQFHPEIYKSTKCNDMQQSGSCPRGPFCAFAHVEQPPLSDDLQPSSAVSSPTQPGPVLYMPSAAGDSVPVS

B1: ENSG00000140939:stop:overlap|stop_codon|ENSG00000140939|stop_codon|NA|stop_codon (ssRNA)
RNA: GGGAGUUCUACAGUCCGACGAUCCGAGUCCGAAGAUUCCUGAAGGCCAGAGCUCUGACAGGCGGUGCCCCGCCCAUGCUGGAUAGGACCUGGGAUGCUGCUGGAGCUGAAUCGGAUGCCACCAAGGCUCGGUCCAGCCCAGUACAACAGAGGAUUGAGCAUCA
B2: chr1:88684422:88684524:+|5pUTR|ENSG00000065243|unk|FALSE|unique (ssRNA)
RNA: GGGAGUUCUACAGUCCGACGAUCUCGAUGAACCGGACGGAAUAAGCCGCGCCUCCAGCAGGGGCUGCGCCUCCAUGAAUCCCUAGUUGUUUUUUUUUUUUUCUUUCUCUCCCCUCUCCUCACCCCCACCCCGAGCCCCGUCCCCAACAGAGGAUUGAGCAUCA
B3: chr15:59095394:59095499:+|3pUTR|ENSG00000157450|unk|total|mutant (ssRNA)
RNA: GGGAGUUCUACAGUCCGACGAUCUAAAUACCAUCCUUAAUACUGGGAACAGAAUACAACCCAUAUAAAUCAGAUGCAGGUGGCCGUCACAUCACCAGAGUGAUCAGUAUAAAUUUUCUUGGUGUAUCCUUUUCCUUUCAACACCAACAGAGGAUUGAGCAUCA
B4: chr15:38484694:38484795:+|3pUTR|ENSG00000171262|unk|total|mutant (ssRNA)
RNA: GGGAGUUCUACAGUCCGACGAUCAUCCGAAACCGUGUUCCAAAUAACAUACUUGAAUAUCAUCUUUGAAGUAAACACCAUGUCCGACUCCCUGGUGAUACCACUCUUGAAUUGGUUAAUAUGUAAGAACAUUGUUUUUUAUUACAACAGAGGAUUGAGCAUCA
B5: ENSG00000181544:stop:overlap|stop_codon|ENSG00000181544|stop_codon|NA|stop_codon (ssRNA)
RNA: GGGAGUUCUACAGUCCGACGAUCAUACUUCAUGUGAGUGGAAUCAUAGAGUAUUUAUAUUUUUGUACCUGGCUUAUUUUACUUAGCAUAAUGUCCUUGAGGUUCAUUCGUGUCAUAGCUUGUGACACUAUUUCCUUCUGUUUACAACAGAGGAUUGAGCAUCA
B6: chr20:11926050:11926151:+|3pUTR|ENSG00000132640|msi1|total|mutant (ssRNA)
RNA: GGGAGUUCUACAGUCCGACGAUCAUGAAAUGGAAUGAAGGCUAAUAUGCUUGCUUUAUUUACUUUUGUAAUCUUGGAUUUUGCCGCUUUUAAAACCCGAAACCAUUGUUCUAACAAAGCAGGCAACUUUAUUCUAUAAACACACAACAGAGGAUUGAGCAUCA
B7: chr5:150657389:150657496:+|3pUTR|ENSG00000171992|unk|FALSE|bound_elsewhere (ssRNA)
RNA: GGGAGUUCUACAGUCCGACGAUCCUCUCUCUCUCUCUCACACACACACACACACACACACACACACACACACACACACACACUAGUUAGUGCCUUGGAUGAGGCGGGGCAGUGUGUAUAUGGACCCCUGGACUUGCUACCUUCCAACAGAGGAUUGAGCAUCA
B8: chr6:41099391:41099486:+|3pUTR|ENSG00000001167|msi1_unk|FALSE|overlapping (ssRNA)
RNA: GGGAGUUCUACAGUCCGACGAUCAGUGCUUAAGCUGCCAACAGUUAGAAGAUGCUAUUUAUUUGUGUCUGUAAGUUUGUACAUAGUAAUGCCAGCCUUGUUGCUGAAUUUUUUAUUUGGGGGGAGAUGACUUUGAAUUUUGUUCAACAGAGGAUUGAGCAUCA
B9: ENSG00000070961:be:win_5251|3pUTR|ENSG00000070961|bound_else_gene|NA|bound_elsewhere_windowed (ssRNA)
RNA: GGGAGUUCUACAGUCCGACGAUCUGGAUUCUUUAGCUCUCUUUUUCUUUCCUUCAUCUACCUUCUUCUCUUUUUUGCCUCUGUCUUUACCCUUUAGAAACUGGCAUGUGUUAGGGCCCAGAUUUCACCAGAUACACAAUCCUCCAACAGAGGAUUGAGCAUCA
B10: chr2:20282997:20283108:-|CDS|ENSG00000055917|unk|FALSE|unique (ssRNA)
RNA: GGGAGUUCUACAGUCCGACGAUCACUAAUCUGCAAUCUAAUUCAUUUUAUGGAAGCAGUUCUUUGACUAAUAGCUCCCAGAGUAGUUCUUUAUUUUCUCAUGGACCUGGUCAACCUGGAAGUACAUCUCUUGGCUUUGGAAGUCAACAGAGGAUUGAGCAUCA
B11: chr2:45599705:45599806:-|CDS|ENSG00000068784|msi1|total|mutant (ssRNA)
RNA: GGGAGUUCUACAGUCCGACGAUCCUCAUAUGUUCUCUUUGUGGUUUGACCGAACCGCUCUGUGGCUAUUGCUGAUACUGCUUCCGAAGACAGAAAAAAUAAAUUGGAUACUGUACAGACUCUGAAAACAGCCAAGACAAAACACAACAGAGGAUUGAGCAUCA
B12: chr4:52020705:52023956:-|three_prime_utr|ENSG00000163069|control|control|control (ssRNA)
RNA: GGGAGUUCUACAGUCCGACGAUCGUGAUAACUCAUAAUUAUUUUAAUGGCAGAGCACUGCUGUAUCUGUUUUAUGGUCUACAUAGUUAAAAUCUUCUCAGAGAGCCUAAAUUCUAAUACAUUUUAUUAAUUUAUACUAAUCUUCAACAGAGGAUUGAGCAUCA
B13: chr15:88464702:88464876:-|CDS|ENSG00000259494|control|control|control (ssRNA)
RNA: GGGAGUUCUACAGUCCGACGAUCUGAUGAAAAGAAUGACCGAACAUCCCUGAACAGGAAGCUAGACAGGAACCUUGUCCUGUUAGUCAGAGAGAAGUUUGGAGACCAGGAUGUUUGGAUACUGCCCCAGGCAGAGUGGCAGCCCAACAGAGGAUUGAGCAUCA
B14: ENSG00000198589:be:win_9101|3pUTR|ENSG00000198589|bound_else_gene|NA|bound_elsewhere_windowed (ssRNA)
RNA: GGGAGUUCUACAGUCCGACGAUCUUCAAGCAUGUUUUAGACCUAGAAAAGUAUGGUUUGGGGGAGGCUAUUUUAUUGUGUGGUUAGCACAAGGAAUCUAAUUUAUAGCAAGUGUGAAAUAGUUACCAUUUUUUCCUGAUCUGUCAACAGAGGAUUGAGCAUCA

biological target: T1, UNK ZnF1-6 (called full-length); assay: nsRBNS (natural sequence RNA bind-n-seq); RBNS binding buffer (assumed for nsRBNS): 25 mM Tris pH 7.5, 150 mM KCl, 3 mM MgCl2, 0.01% Triton X-100, 500 ug/ml BSA, 20 U/ml SUPERase-In, 4 C; UNK is unkempt and MSI1 is Musashi-1; names of the RNAs are library labels; protein concentration not given here; high values mean tight binding

B1 was tested. Which binding signal did it give?
The binding signal was 0.585 enrichment R.

With B2 as the binder, how does the binding signal read?
The binding signal was 39 enrichment R.

For B3, which binding signal is on record?
The binding signal was 0.366 enrichment R.

For B4, which binding signal is on record?
Its binding signal is 0.409 enrichment R.

Which binding signal does the source give for B5 here?
Its binding signal is 0.545 enrichment R.

Which binding signal does the source give for B6 here?
Its binding signal is 0.466 enrichment R.

B7 was tested. Which binding signal did it give?
The binding signal was 2.02 enrichment R.

How did the binding signal turn out when B8 was run?
Its binding signal is 3.8 enrichment R.

How did the binding signal turn out when B9 was run?
Its binding signal is 1.45 enrichment R.

Which binding signal does the source give for B10 here?
The binding signal was 3.69 enrichment R.

For B11, which binding signal is on record?
The binding signal was 0.362 enrichment R.

For B12, which binding signal is on record?
Its binding signal is 10.6 enrichment R.

Which binding signal does the source give for B13 here?
The binding signal was 0.61 enrichment R.

B14 was tested. Which binding signal did it give?
The binding signal was 2.96 enrichment R.
